Measurements published in paper PMC7819943, “Rice protein-binding microarrays: a tool to detect cis-acting elements near promoter regions in rice”.
The list shows a part of the results.

Each sequence was assayed against T1, OsWOX13 (Oryza sativa, UniProt Q5QMM3 1-267) (assay: protein-binding microarray (RPBM); PBS, 2% BSA, 51.3 ng/ul salmon testes DNA, 50 uM zinc acetate, 200 nM TF, 25 C, 1 h; high values mean tight binding). Conditions: protein: recombinant; tags: N-terminal polyhistidine and DsRed monomer fusion (pET32a); label: CyDye5-dUTP incorporated in the synthesized complementary strand; 3' TTTTT single-stranded linker to array surface; dsDNA, one strand shown.
T1 sequence: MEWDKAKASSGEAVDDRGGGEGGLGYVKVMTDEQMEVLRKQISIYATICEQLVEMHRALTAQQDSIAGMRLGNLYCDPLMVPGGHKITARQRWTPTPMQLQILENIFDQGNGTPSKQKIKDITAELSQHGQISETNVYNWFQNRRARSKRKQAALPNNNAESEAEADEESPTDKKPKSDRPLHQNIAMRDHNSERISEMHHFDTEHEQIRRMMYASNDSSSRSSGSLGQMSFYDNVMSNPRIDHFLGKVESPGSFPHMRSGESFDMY
In short: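 The binding signal for each feature is its fluorescence intensity in arbitrary units. An Axon 4000B scanner was used to read a custom Agilent array that had been made double-stranded with Cy5-dUTP primer extension, blocked with 2% BSA, incubated at 25 °C for 1 h with 200 nM protein in PBS, 2% BSA, salmon testes DNA and 50 µM zinc acetate, and washed. The protein was an N-terminal polyhistidine–DsRed transcription factor fusion from E. coli BL21-CodonPlus, purified on Ni–NTA.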
With “CCAGGTTAATTTATGCTTAATTAATTACTACTTTTCTCTTCGGAGTCACCTAGTGCAG” the binding signal was 47800 fluorescence intensity (a.u.). With “GTTTCTTAATTAAATTCGATGCGCGTGTCCACGGCCTGCACGGAGTCACCTAGTGCAG” the binding signal was 12500 fluorescence intensity (a.u.). For “CATTGTTTAATTATCAACGAGTATCATCAAAATATCATCCCGGAGTCACCTAGTGCAG”, the binding signal was 6840 fluorescence intensity (a.u.). “CACTTTGACAGCCATGTGCCGCGGCGCCTGTGGATTATTCCGGAGTCACCTAGTGCAG” was tested, and the binding signal was 3730 fluorescence intensity (a.u.). For “CGCCGGCGCTGTGATTGATAGCCTTGCAAACCAGGGTTTGCGGAGTCACCTAGTGCAG”, the binding signal was 29500 fluorescence intensity (a.u.). “TTTATCGTACAATTACAATATAATTATAACGTATACCATGCGGAGTCACCTAGTGCAG” was tested, and the binding signal was 5240 fluorescence intensity (a.u.). For “TGATGACTGTAGTTTGCTTGTTCCGAATGATTTATCCTATCGGAGTCACCTAGTGCAG”, the binding signal was 4390 fluorescence intensity (a.u.). In the case of “TGTAACATGATAATTTAACTCGGCTCTTTTCAGAATATTTCGGAGTCACCTAGTGCAG”, the binding signal is reported as 10200 fluorescence intensity (a.u.). In the case of “ATCAATTTTAAAATTAAATTTTAATTTTAAATTTTGAATTCGGAGTCACCTAGTGCAG”, the binding signal is reported as 26900 fluorescence intensity (a.u.). With “TCATTAAATACAAATTATGCGGATCGGGTATCCTTACTGTCGGAGTCACCTAGTGCAG” the binding signal was 3470 fluorescence intensity (a.u.). For “GCACCTTTCAAATTCATCTGATTTATGCATTCTTCTGTAACGGAGTCACCTAGTGCAG”, the binding signal was 3340 fluorescence intensity (a.u.). “AACTTATTCCAATTATCAAACTCCGCTGCTCAACCAGGCCCGGAGTCACCTAGTGCAG” was tested, and the binding signal was 5860 fluorescence intensity (a.u.). In the case of “CATTAATATATAATTAATTAAATATTAGCTATATTTTGAACGGAGTCACCTAGTGCAG”, the binding signal is reported as 41000 fluorescence intensity (a.u.). In the case of “AACAATTGACGTTTTGGATAAGGTTGAAGTCAAACTTTTACGGAGTCACCTAGTGCAG”, the binding signal is reported as 7430 fluorescence intensity (a.u.). With “CCTTGTTTTGAAGATTTAATTGCAACGAATTTAATGGTGCCGGAGTCACCTAGTGCAG” the binding signal was 3290 fluorescence intensity (a.u.). “AGATTAATTGTGTATCTGTGCCATCTGTCGGTAACATTACCGGAGTCACCTAGTGCAG” was tested, and the binding signal was 15400 fluorescence intensity (a.u.). In the case of “AATGTTAATCACACAATGAAAATTATGCAAGAAGAGGTAACGGAGTCACCTAGTGCAG”, the binding signal is reported as 6380 fluorescence intensity (a.u.). In the case of “CTCCAATCAACCGTCCAATTCAGTCATACTCCGTAGTCCGCGGAGTCACCTAGTGCAG”, the binding signal is reported as 22600 fluorescence intensity (a.u.). In the case of “ATGATTTTAGCTAAACCGAAATCTACACACAAGGAGTACTCGGAGTCACCTAGTGCAG”, the binding signal is reported as 6130 fluorescence intensity (a.u.). With “GCAAAATGGAAAAGATTAAACAGCTATATCAATGAGGATTCGGAGTCACCTAGTGCAG” the binding signal was 3300 fluorescence intensity (a.u.). “ATAACTTAATCACATTTCCACACACACTGTTAACTTGAACCGGAGTCACCTAGTGCAG” was tested, and the binding signal was 6070 fluorescence intensity (a.u.). In the case of “AAAGTTTAAATTGTCAAAATTTTGTCGTATACTGTCCCTACGGAGTCACCTAGTGCAG”, the binding signal is reported as 6000 fluorescence intensity (a.u.). “AATAATTTTATGGTTATTTAAAACATTTAAATTTGAGACTCGGAGTCACCTAGTGCAG” was tested, and the binding signal was 9060 fluorescence intensity (a.u.).
